From the supplement of paper PMC10986608 come the findings set out here.

Each structure is given as a SMILES string. The list shows a part of the results. Most values come without repeats; read them as rough.

For the assay, the system named is Candida albicans DPL-15. Nature of the assay: growth (OD600) after compound treatment (apparently relative to screen median) (relative growth (fraction; screen median 1.02)); DPL-15 is a caspofungin-resistant clinical isolate; higher = more fungal growth (less antifungal activity). To be noted: 25 µM; RPMI 1640; 48 h; 30 °C.
In the case of `CCN1C(=S)NC(c2ccccc2F)C(C(=O)OC)=C1C` (configuration not stated), the growth turned out to be 1.14.
For the compound `COc1cc(O)c(C(=O)[C@@H]2CC=C(CCC=C(C)C)C[C@H]2c2ccsc2)c(O)c1`, the growth is 1.07.
For `COc1ccc(N2C(=O)c3c(c(CC(C)C)nn3C)C2c2ccc(F)cc2)cc1` (configuration not stated), the growth came to 0.854.
Regarding `C=CCCCCc1cc2cc(OC)cc(OC)c2c(=O)o1`, the growth amounted to 1.05.
On to `CC(C)c1c2c(nn1-c1ccc(OC(F)(F)F)cc1)C(=O)NC2c1cccc(C(F)(F)F)c1` (configuration not stated), for which the growth was 0.953.
Consider `COc1cc(F)ccc1C1c2c(CC(C)C)n[nH]c2C(=O)N1c1ccc(Br)cc1` (configuration not stated), for which the growth came out at 1.01.
For `Brc1ccc(/C=C/c2cc(/C=C/c3ccc(Br)cc3)[nH]n2)cc1`, the growth was determined as 1.01.
As for `COCOc1cccc2c(OC)c(C3=C(CO[Si](C)(C)C(C)(C)C)[C@@H](OC(C)=O)[C@@]4(C)O[C@H]4[C@H]3OC(C)=O)cc(OC)c12`, the growth worked out at 0.939.
As to `O=c1c2ccccc2oc2cc(CC3OCCO3)cc(O)c12`, the growth worked out at 1.07.
As to `CC(C)(C)NS(=O)(=O)N(CCC1CCCCC1)C(=O)OC(C)(C)C`, the growth stood at 1.12.
In the case of `C[C@H](OS(=O)(=O)NC(C)(C)C)C1CC[C@H]2[C@@H]3CCC4=CC(=O)CC[C@]4(C)[C@H]3CC[C@]12C` (some centres not stated), the growth amounted to 1.06.
For the compound `COC(=O)[C@H](Cc1ccccc1)N[C@H](c1ccc(OC)cc1)[C@@H](O)Cc1ccccc1`, the growth was 1.1.
For `COc1ccc(N2C(=O)c3[nH]nc(CC(C)C)c3C2c2ccc(F)cn2)cc1` (configuration not stated), the growth amounted to 1.16.
`COC(=O)[C@]1([C@@H]2OC(=O)C[C@@H]2C)CC(=O)c2c(O)ccc(Br)c2O1`: the growth came out at 1.
Consider `CC(=O)O[C@@H]1C[C@@]23CC[C@@H]4[C@](C)(COS(=O)(=O)NC(C)(C)C)CCC[C@@]4(C)[C@@H]2CC[C@]1(C)C3`, for which the growth was determined as 1.
The figure for `CCCCCCN(C(=O)OC(C)(C)C)S(=O)(=O)NC(C)(C)C` is 1.04; for `CCOC(=O)C1=C(C)NC(=O)NC1c1ccccc1` (configuration not stated) it is 1.09; for `COc1cc(C)cc2c1-c1c(c(OC)c3c(OC)cccc3c1OC)C2=O` it is 1.13.
As for `CC(C)C1=NCCNC2=C1C(c1ccc(F)cc1)N(Cc1ccccc1)C2=O` (configuration not stated), the growth was found to be 0.901.
In the case of `CC(C)CC1=NCC(C)(C)NC2=C1C(c1ccc(Br)cc1)NC2=O` (configuration not stated), the growth amounted to 0.998.
With `C#CCC(C)(C)CNC(=O)CC1(CNC(=O)c2cccc(/C=N/NS(=O)(=O)c3ccc(C)cc3)n2)CCCCC1`, the growth was determined as 1.16.
As for `COC(=O)c1[nH]c2ccc(OC)cc2c1[C@]12CCN(C(=O)Cc3ccc4c(c3)OCO4)[C@H]1Nc1ccccc12`, the growth amounted to 0.914.
As for `CC(C)CCNS(=O)(=O)NC(C)(C)C`, the figure is 1.17; as for `COC(=O)C1=C(C)N(Cc2ccccc2)C(NCc2ccccc2)=N[C@H]1c1ccccc1`, 0.933.
As for `Cc1cc2c(nc1C)CCCN2S(=O)(=O)c1ccc(F)cc1`, the figure is 0.927.
As to `COc1ccccc1N1C(=O)c2[nH]nc(CC(C)C)c2C1c1ccccc1Br` (configuration not stated), the growth was determined as 1.11.
For the compound `CC(C)Cc1n[nH]c2c1C(c1ccc3c(c1)OCO3)NC2=O` (configuration not stated), the growth was 0.946.
As for `COc1ccc([C@@]23Oc4cc(OC)cc(OC)c4[C@]2(O)[C@@H](O)[C@H](C(=O)c2ccco2)[C@H]3c2ccccc2)cc1`, the growth worked out at 0.951.
For `CC(=O)C1=C(C)N(Cc2ccccc2)C(=O)NC1c1ccc(Cl)cc1` (configuration not stated), the growth is 0.972.
`COc1ccccc1Cn1nc(C(C)C)c2c1C(=O)NC2c1ccccc1` (configuration not stated): the growth was 0.898.
With `COC(=O)C1=C(C)N(Cc2cccc(F)c2)C(=S)NC1c1cccc(Br)c1` (configuration not stated), the growth turned out to be 0.993.
In the case of `COc1ccc([C@]23OCC[C@H]2[C@H]2OC(=O)c4c(O)cc(C)c5c(O)cc(c2c45)O3)cc1`, the growth came out at 1.06.
Consider `Cc1ccccc1S(=O)(=O)N1CCCc2nc(-c3ccccc3)ccc21`, for which the growth was found to be 0.941.
Regarding `CCOC(=O)C1=C(C)NC(=O)NC1c1cc(OC)c(OC)c(OC)c1` (configuration not stated), the growth was 1.25.
For `CC(C)c1c2c(nn1Cc1ccccc1)C(=O)NC2c1ccccc1` (configuration not stated), the growth came out at 0.96.
In the case of `CCOC(=O)C1CCCN(CCc2ccccn2)C1` (configuration not stated), the growth turned out to be 1.09.
In the case of `CCc1ccc(N2C(=O)c3[nH]nc(CC(C)C)c3C2c2ccc(F)cc2)cc1` (configuration not stated), the growth was 0.971.
The figure for `COC(=O)[C@H]1[C@H](C(=O)OC)[C@@H](c2ccc3c(c2)OCO3)[C@@H]1c1ccc2c(c1)OCO2` is 1.04; for `COC(=O)c1nnc(C=O)c2c1[nH]c1ccccc12` it is 1.03; for `CC1=NCCNC2=C1C(c1ccc(F)cc1)NC2=O` (configuration not stated) it is 1.1.
On to `C=C(C)C1[C@H](c2cc(O)c(O)c3oc4cc(O)cc(O)c4c(=O)c23)C=C(C)C[C@H]1c1cc(O)c(O)c2oc3cc(O)cc(O)c3c(=O)c12` (some centres not stated), for which the growth was active: 0.0122.
Take `C=CCC[C@@H](O)COc1cc2c(cc1C1(c3cc4c(cc3OC[C@H](O)CCC=C)OCO4)C(=O)Nc3cc(F)ccc31)OCO2`: the growth was found to be 1.08.
The figure for `CC(C)[C@@H]1NC(=O)CCCCOC(=O)C/C=C/[C@H](C)[C@H](c2ccccc2)NC1=O` is 1; for `COc1ccc(N2C(=O)c3[nH]nc(CC(C)C)c3[C@@H]2c2ccc(F)cc2)cc1` it is 1.07.
In the case of `COc1ccc(-c2nc3c(c4c2C[C@H](C)OC4)CN(Cc2cc(OC)c(OC)c(OC)c2)CC3)cc1`, the growth is 0.93.
Regarding `CCc1ccccc1-n1nc(C)c2c1C(=O)NC2c1ccc(Br)cc1` (configuration not stated), the growth turned out to be 1.01.
The figure for `COCCN1C(=S)NC(c2ccc(C(F)(F)F)cc2)C(C(=O)OC)=C1C` (configuration not stated) is 1.27; for `COc1ccc(N2C(=O)c3[nH]nc(CC(C)C)c3C2c2ccccc2F)cc1` (configuration not stated) it is 1.08; for `COC(=O)C/C=C/[C@@H](C)[C@H](NC(=O)[C@@H](CC(C)C)NC(=O)OC(C)(C)C)c1ccccc1` it is 1.07.
Consider `CC1=C[C@@H](COc2cccc(F)c2)O[C@@]2(C1)C(=O)Nc1c(F)cccc12`, for which the growth was determined as 0.938.
For `COc1ccc2c(=O)c3ccccc3oc2c1OCC=C(C)C`, the growth was determined as 1.11.
For `C=CCOC(=O)/C=C/NC(=O)c1ccccc1`, the growth came out at 1.07.
